This is an account of results in publication PMC12136788.

This is one part of the list.

T1: UNK ZnF1-3 (human, UniProt Q9C0B0 31-174)
T1 sequence: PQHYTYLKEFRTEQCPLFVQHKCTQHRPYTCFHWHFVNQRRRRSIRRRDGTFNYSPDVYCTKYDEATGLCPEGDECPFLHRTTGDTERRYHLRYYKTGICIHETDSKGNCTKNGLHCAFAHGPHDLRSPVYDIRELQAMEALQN

B1: chr2:9570881:9570882:+_ENSG00000119203_ENST00000238112|hu_mus|hu_hu_hu_mus_False|18_108 (ssRNA)
RNA: GGGAGUUCUACAGUCCGACGAUCACUUGUCUUCUGUAGGAACCAGGGCAGGGCUCCACAGUGAUCCAAAUGGAAAUGACUGAUCAACAGAAGGUCGAUCUCAGCUGGGUCGAUAAGAUCAAUAUAAGGAAGGGCAUCCAUUCCCAACAGAGGAUUGAGCAUCA
B2: chr1:58468927:58468928:-_ENSMUSG00000026034_ENSMUST00000148330|mus_mus|mus_mus_mus_hu_False|1_18 (ssRNA)
RNA: GGGAGUUCUACAGUCCGACGAUCAAUUACUGAAAAAGAUGUUCAUUACCUUAGCUAUGUACUUAAUGAACCAAAUUACCCAAACAAAAUAAACAUGGCAAUAUAAAAAUGUUAAGAAAAUAACUUACUGUACAAAAAGACUGACAACAGAGGAUUGAGCAUCA
B3: chr1:115282363:115282364:-_ENSG00000009307_ENST00000339438|perfect_dup|motif|central (ssRNA)
RNA: GGGAGUUCUACAGUCCGACGAUCAUCAUCUCCUACUUUUAAGUCUUGGAGGUUGCCAUUAUAUUGUGAACAGUGGAAGAAAAGUCGGGCUUGCCGUUCUGAACACUGAAUGAAUCCGUAAGAGGUCAAGAGUUUUUCAAUAACCAACAGAGGAUUGAGCAUCA
B4: chr21:40768814:40768815:+_ENSG00000182093_ENST00000333781|hu_mus|FALSE|FALSE (ssRNA)
RNA: GGGAGUUCUACAGUCCGACGAUCCUGGCCUUCCCCUCAGCUGAAAGGGUGGAGAACGAUAGCCACAACUUUGUUACAGACUAAAAUCCAACAGGUGAUUCCAAUUCCACCUGCUACUCGAGUAGGAAAGGCUACCAGGCGGUCCAACAGAGGAUUGAGCAUCA
B5: chr7:44244176:44244177:+_ENSG00000106636_ENST00000223369|hu_mus|hu_hu_hu_mus_False|1_1 (ssRNA)
RNA: GGGAGUUCUACAGUCCGACGAUCACUGUCGCUCCGGACGUAGACAUGGCAAAGAUACUCUUGUUCUUUGACAGAAGCUCUGCUGCCUUUCCCCGAGCGUUCCACAAUCAGUUGACUUGUAAAGGUCAUGAAUUCCUGAACGCUCAACAGAGGAUUGAGCAUCA
B6: chr5:173383253:173383254:+_ENSG00000113742_ENST00000334035|hu_mus|FALSE|FALSE (ssRNA)
RNA: GGGAGUUCUACAGUCCGACGAUCCAAAAUACCUAUGUUGUAGGUUGUUCUUUUCAUUCUACCACUGAUAGUUACACACUGCUGUGCAGGACAUGCCAGUGUGAAGAGGCUGAGGAAGAGUUGGAAUUAACAAAAGAGGGCACUCAACAGAGGAUUGAGCAUCA
B7: chr11:51926749:51926750:+_ENSMUSG00000020349_ENSMUST00000020608|perfect_dup|FALSE|FALSE (ssRNA)
RNA: GGGAGUUCUACAGUCCGACGAUCGUCAACAUAAUCUCCCAUAAACAAGUAAUUUGUAUCUGGUGAUUUGCCACCAAUUCUAAACAGUUCCAUGAGAUCAUGAAAUUGCCCAUGCACAUCUCCACAGACAGUAACUGGACAUCGCAACAGAGGAUUGAGCAUCA
B8: 46243500_46243879_2085_3pUTR_ENSG00000189079_ENST00000334344|human|control|control (ssRNA)
RNA: GGGAGUUCUACAGUCCGACGAUCUGGUUGGCAACAGGAGUCCUCUGAAAAUGGUUUCCUAUGGUUUGUGAUCCAUGAGGGAUUCCUGCAGGUGAAGGAGCAGGAGAUACAUCAGGAACAGAAUCAACACGAACAACAGAAGUACAACAGAGGAUUGAGCAUCA
B9: chr1:58468927:58468928:-_ENSMUSG00000026034_ENSMUST00000148330|mus_mus|mus_mus_mus_hu_False|38_78 (ssRNA)
RNA: GGGAGUUCUACAGUCCGACGAUCAAUUACUGAAAAAGAUGUUCAUUACCUUAGCUAGGCCAUGUAUGAACCAAAUUACCCAAACAAAAUAAACAUGUUUACAAAUUAAUGUUAAGAAUUUACAAAGCUGUACAAAAUAACUUACAACAGAGGAUUGAGCAUCA
B10: chr4:42003652:42003653:+_ENSG00000014824_ENST00000513699|hu_hu|FALSE|FALSE (ssRNA)
RNA: GGGAGUUCUACAGUCCGACGAUCGGUACCAAUAUAUGGAUGACUACAGGGAACCAUGUUUGAAAAGCUUCCAAAUGUCACUAAAUUCUGCCACUCCUGGCGGUCGCUGGGAUUACAGGCCGCCGCCCUGCAUCGCAGACGGAGCAACAGAGGAUUGAGCAUCA
B11: chr15:79189513:79189514:+_ENSG00000185787_ENST00000426013|hu_hu|motif|central (ssRNA)
RNA: GGGAGUUCUACAGUCCGACGAUCCUUUUAUUUUUUCUCUGUUUAAAAUCAAACAGAAAACAAACAUCAAUUGUUAUACACGGACAUCUUCAAAGCACAUCGUUUGUACAAGAGAUAGACUAAGAACAAAAAUGUGUUUACGGACAACAGAGGAUUGAGCAUCA
B12: chr22:19452774:19452775:-_ENSG00000070010_ENST00000399523|hu_hu|hu_hu_hu_mus_False|1_98 (ssRNA)
RNA: GGGAGUUCUACAGUCCGACGAUCCUUCUCAUUGUAGUUGAUGGCAAUCACAUCUCCAGUCGUCAGACAGGCGAAGUUUCUCAAUGCAUUUUCUAAUACCGCUUUAGGGUUGGUAAUAUCCAGGAAGUCUGGGCUCUGAGGUUGCAACAGAGGAUUGAGCAUCA
B13: chr3:119450855:119450856:-_ENSMUSG00000028134_ENSMUST00000029780|mus_hu|mus_mus_mus_hu_False|48_58 (ssRNA)
RNA: GGGAGUUCUACAGUCCGACGAUCUGUGGUGCCACUAAGAGGAGUAUUUGCUGUCUGGACAGCUGUCACAGCUUGAAGAACUACUUGCGCACGUUGGUUUAAUGUAUUAUCUGUCUUUAGUUCUUUGUGAUUCGAGUACUGGAUCAACAGAGGAUUGAGCAUCA
B14: chr7:151048522:151048523:+_ENSG00000013374_ENST00000566856|hu_mus|hu_hu_hu_mus_True|1_78 (ssRNA)
RNA: GGGAGUUCUACAGUCCGACGAUCCUGUUUCUUAUUUAUUACGAUCUUGAUGUAAUUUUCUUGAAGUCCGAAAGUUUCAGCUAUUUGACACCUCAGGUCUCUACCAGUGACAUGCAAGCGGGUCUCCAACAAGCUUUUCCUAUCCAACAGAGGAUUGAGCAUCA

The target in this experiment is T1, UNK ZnF1-3. In words: nsRBNS (natural sequence RNA bind-n-seq); RBNS binding buffer (assumed for nsRBNS): 25 mM Tris pH 7.5, 150 mM KCl, 3 mM MgCl2, 0.01% Triton X-100, 500 ug/ml BSA, 20 U/ml SUPERase-In, 4 C; UNK is unkempt and MSI1 is Musashi-1; names of the RNAs are library labels; protein concentration not given here; high values mean tight binding.
With B1, the binding signal stood at 1.07 enrichment R. In turn, B2 had a binding signal of 1.72 enrichment R. B3 yielded a binding signal of 1.55 enrichment R. Regarding B4, the binding signal was 1.05 enrichment R.

B5 gave a binding signal of 0.501 enrichment R. As for B6, the binding signal was determined as 1.06 enrichment R. In the case of B7, the binding signal stood at 1.07 enrichment R. Consider B8, for which the binding signal turned out to be 1.48 enrichment R.

In the case of B9, the binding signal came to 0.667 enrichment R. Molecule B10 gave a binding signal of 0.804 enrichment R. B11 registered a binding signal of 0.334 enrichment R. B12 registered a binding signal of 0.827 enrichment R. In the case of B13, the binding signal worked out at 0.715 enrichment R.

B14 had a binding signal of 0.798 enrichment R.
